Test results reported in the supplement of paper PMC8728848.
The list shows a part of the results.

Key:
Assay in all cases: glycan array binding signal (z-score within array); higher = stronger binding
Details in all cases: glycan notation: IUPAC condensed, linker removed
[1] = target: Neu5Ac(a2-3)Gal(b1-3)GlcNAc
Summary of the method: (§1)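 Glycan array data were curated from 3228 arrays in the Consortium for Functional Glycomics database and kept only where the protein sequence was available. Glycan names were converted to IUPAC-condensed notation, and columns mapping to the same glycan were averaged. The binding signal is a within-array Z-score, averaged across arrays of the same protein sequence at different concentrations or buffers and across linkers. Negative Z-scores can be read as non-binding.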

[2] = target: Neu5Ac(a2-3)Gal(b1-3)[Fuc(a1-4)]GlcNAc
Summary of the method: as §1

[3] = target: Neu5Ac(a2-3)Gal(b1-3)[Neu5Ac(a2-3)Gal(b1-4)]GlcNAc
Summary of the method: as §1

[4] = target: Neu5Ac(a2-3)Gal(b1-3)[Neu5Ac(a2-6)]GalNAc
Summary of the method: as §1

[5] = target: Neu5Ac(a2-3)Gal(b1-4)Glc
Summary of the method: as §1

[6] = target: Neu5Ac(a2-3)Gal(b1-4)GlcNAc
Summary of the method: as §1

[7] = target: Neu5Ac(a2-3)Gal(b1-4)GlcNAc(b1-3)Gal(b1-4)GlcNAc
Summary of the method: as §1

[8] = target: Neu5Ac(a2-3)Gal(b1-4)GlcNAc(b1-3)Gal(b1-4)GlcNAc(b1-3)Gal(b1-4)GlcNAc
Summary of the method: as §1

[9] = target: Neu5Ac(a2-3)Gal(b1-4)GlcNAc6S
Summary of the method: as §1

[10] = target: Neu5Ac(a2-3)Gal(b1-4)[Fuc(a1-3)]GlcNAc
Summary of the method: as §1

[11] = target: Neu5Ac(a2-3)Gal(b1-4)[Fuc(a1-3)]GlcNAc(b1-3)Gal
Summary of the method: as §1

[12] = target: Neu5Ac(a2-3)Gal(b1-4)[Fuc(a1-3)]GlcNAc(b1-3)Gal(b1-4)GlcNAc
Summary of the method: as §1

[13] = target: Neu5Ac(a2-3)Gal(b1-4)[Fuc(a1-3)]GlcNAc(b1-3)Gal(b1-4)[Fuc(a1-3)]GlcNAc(b1-3)Gal(b1-4)[Fuc(a1-3)]GlcNAc
Summary of the method: as §1

[14] = target: Neu5Ac(a2-3)Gal(b1-4)[Fuc(a1-3)]GlcNAc6S
Summary of the method: as §1

[15] = target: Neu5Ac(a2-3)Gal6S(b1-4)GlcNAc
Summary of the method: as §1

[16] = target: Neu5Ac(a2-3)GalNAc
Summary of the method: as §1

[17] = target: Neu5Ac(a2-3)[GalNAc(b1-4)]Gal(b1-4)Glc
Summary of the method: as §1

[18] = target: Neu5Ac(a2-3)[GalNAc(b1-4)]Gal(b1-4)GlcNAc
Summary of the method: as §1

[19] = target: Neu5Ac(a2-3)[Neu5Ac(a2-6)]GalNAc
Summary of the method: as §1

[20] = target: Neu5Ac(a2-6)Gal
Summary of the method: as §1

[21] = target: Neu5Ac(a2-6)Gal(b1-4)Glc
Summary of the method: as §1

[22] = target: Neu5Ac(a2-6)Gal(b1-4)GlcNAc
Summary of the method: as §1

[23] = target: Neu5Ac(a2-6)Gal(b1-4)GlcNAc(b1-3)Gal(b1-4)GlcNAc
Summary of the method: as §1

[24] = target: Neu5Ac(a2-6)Gal(b1-4)GlcNAc(b1-3)Gal(b1-4)[Fuc(a1-3)]GlcNAc(b1-3)Gal(b1-4)[Fuc(a1-3)]GlcNAc
Summary of the method: as §1

[25] = target: Neu5Ac(a2-6)Gal(b1-4)GlcNAc6S
Summary of the method: as §1

[26] = target: Neu5Ac(a2-6)GalNAc
Summary of the method: as §1

[27] = target: Neu5Ac(a2-8)Neu5Ac
Summary of the method: as §1

[28] = target: Neu5Ac(a2-8)Neu5Ac(a2-3)Gal(b1-4)Glc
Summary of the method: as §1

[29] = target: Neu5Ac(a2-8)Neu5Ac(a2-3)[GalNAc(b1-4)]Gal(b1-4)Glc
Summary of the method: as §1

[30] = target: Neu5Ac(a2-8)Neu5Ac(a2-8)Neu5Ac
Summary of the method: as §1

[31] = target: Neu5Ac(a2-8)Neu5Ac(a2-8)Neu5Ac(a2-3)Gal(b1-4)Glc
Summary of the method: as §1

[32] = target: Neu5Ac(a2-8)Neu5Ac(a2-8)Neu5Ac(a2-3)[GalNAc(b1-4)]Gal(b1-4)Glc
Summary of the method: as §1

[33] = target: Neu5Ac(b1-6)GalNAc
Summary of the method: as §1

[34] = target: Neu5Ac(b2-6)Gal(b1-4)GlcNAc
Summary of the method: as §1

[35] = target: Neu5Ac9Ac(a2-6)Gal(b1-4)GlcNAc
Summary of the method: as §1

[36] = target: Neu5Gc(a2-3)Gal(b1-3)GlcNAc
Summary of the method: as §1

[37] = target: Neu5Gc(a2-3)Gal(b1-3)[Fuc(a1-4)]GlcNAc
Summary of the method: as §1

[38] = target: Neu5Gc(a2-3)Gal(b1-4)Glc
Summary of the method: as §1

[39] = target: Neu5Gc(a2-3)Gal(b1-4)GlcNAc
Summary of the method: as §1

[40] = target: Neu5Gc(a2-3)Gal(b1-4)[Fuc(a1-3)]GlcNAc
Summary of the method: as §1

[41] = target: Neu5Gc(a2-6)Gal(b1-4)GlcNAc
Summary of the method: as §1

[42] = target: Neu5Gc(a2-6)GalNAc
Summary of the method: as §1

B1: RegIIIgamma (Mus musculus), O09049 (protein)
chain: MLPRITITIMSWMLLSCLMLLSQVQGEVAKKDAPSSRSSCPKGSRAYGSYCYALFSVSKNWYDADMACQKRPSGHLVSVLSGAEASFLSSMIKSSGNSGQYVWIGLHDPTLGYEPNRGGWEWSNADVMNYINWETNPSSSSGNHCGTLSRASGFLKWRENYCNLELPYVCKFKA
B1 was tested, and the “glycan array binding signal (z-score)” value [1] was -0.18, the “glycan array binding signal (z-score)” value [2] was -0.221 and the “glycan array binding signal (z-score)” value [3] was -0.111. For the same binder, the “glycan array binding signal (z-score)” value [4] was -0.095, the “glycan array binding signal (z-score)” value [5] was -0.178 and the “glycan array binding signal (z-score)” value [6] was -0.21. For the same binder, the “glycan array binding signal (z-score)” value [7] was -0.209, the “glycan array binding signal (z-score)” value [8] was -0.032 and the “glycan array binding signal (z-score)” value [9] was 0.024. For the same binder, the “glycan array binding signal (z-score)” value [10] was -0.126, the “glycan array binding signal (z-score)” value [11] was -0.205 and the “glycan array binding signal (z-score)” value [12] was 0.043. The “glycan array binding signal (z-score)” value [13] was 0.253, the “glycan array binding signal (z-score)” value [14] was 0.008 and the “glycan array binding signal (z-score)” value [15] was -0.017. The “glycan array binding signal (z-score)” value [16] was -0.225, the “glycan array binding signal (z-score)” value [17] was -0.145 and the “glycan array binding signal (z-score)” value [18] was -0.028. For the same binder, the “glycan array binding signal (z-score)” value [19] was -0.098, the “glycan array binding signal (z-score)” value [20] was -0.191 and the “glycan array binding signal (z-score)” value [21] was -0.174. For the same binder, the “glycan array binding signal (z-score)” value [22] was -0.165, the “glycan array binding signal (z-score)” value [23] was -0.197 and the “glycan array binding signal (z-score)” value [24] was -0.029. For the same binder, the “glycan array binding signal (z-score)” value [25] was 0.1, the “glycan array binding signal (z-score)” value [26] was -0.015 and the “glycan array binding signal (z-score)” value [27] was -0.139. The “glycan array binding signal (z-score)” value [28] was -0.078, the “glycan array binding signal (z-score)” value [29] was -0.133 and the “glycan array binding signal (z-score)” value [30] was -0.108. The “glycan array binding signal (z-score)” value [31] was -0.163, the “glycan array binding signal (z-score)” value [32] was -0.079 and the “glycan array binding signal (z-score)” value [33] was -0.185. The “glycan array binding signal (z-score)” value [34] was -0.177, the “glycan array binding signal (z-score)” value [35] was -0.154 and the “glycan array binding signal (z-score)” value [36] was -0.168. For the same binder, the “glycan array binding signal (z-score)” value [37] was 0.421, the “glycan array binding signal (z-score)” value [38] was -0.148 and the “glycan array binding signal (z-score)” value [39] was -0.175. For the same binder, the “glycan array binding signal (z-score)” value [40] was -0.119, the “glycan array binding signal (z-score)” value [41] was -0.207 and the “glycan array binding signal (z-score)” value [42] was -0.147.
